The values below come from PubChem BioAssay AID1159614 (National Center for Advancing Translational Sciences (NCATS), 2016).

About 65 (0.1%) of roughly 45,000 compounds were called active. Calls follow the shape of the dose curve; as a rule, active = well fitted activation curve with a large enough effect; inconclusive = small, poorly fitted or top-dose-only effect; inactive = no such curve, though single readings can be large or run the other way. This is one part of the list.

The target of the assay is Galactocerebrosidase (Homo sapiens) (UniProt P54803). The experiment in a line: A Novel Cell-Based Assay to Identify Small Molecules for B -Galactocerebrosidase. Also: 0% is about no effect; nearly all actives have a fitted effect of over 65% in size. Particulars: 145M-Twi-hGALC-G270D cells (Twitcher mouse brain line with human GALC G270D), HMU-beta-Gal fluorescence, 48 h; series mostly up to 57.5 µM; activation: at the top concentration. The essentials: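 Live 145M-Twi cells (Twitcher mouse brain-derived, GALC-null) stably expressing human GALC-G270D, with a wild-type GALC line, were compound-treated. Residual GALC activity was then read as fluorescence from 0.1 mM final HMU-β-gal at pH 5.2; higher signal means activation.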
Chain of UniProt P54803 (P54803 whole entry, looked up): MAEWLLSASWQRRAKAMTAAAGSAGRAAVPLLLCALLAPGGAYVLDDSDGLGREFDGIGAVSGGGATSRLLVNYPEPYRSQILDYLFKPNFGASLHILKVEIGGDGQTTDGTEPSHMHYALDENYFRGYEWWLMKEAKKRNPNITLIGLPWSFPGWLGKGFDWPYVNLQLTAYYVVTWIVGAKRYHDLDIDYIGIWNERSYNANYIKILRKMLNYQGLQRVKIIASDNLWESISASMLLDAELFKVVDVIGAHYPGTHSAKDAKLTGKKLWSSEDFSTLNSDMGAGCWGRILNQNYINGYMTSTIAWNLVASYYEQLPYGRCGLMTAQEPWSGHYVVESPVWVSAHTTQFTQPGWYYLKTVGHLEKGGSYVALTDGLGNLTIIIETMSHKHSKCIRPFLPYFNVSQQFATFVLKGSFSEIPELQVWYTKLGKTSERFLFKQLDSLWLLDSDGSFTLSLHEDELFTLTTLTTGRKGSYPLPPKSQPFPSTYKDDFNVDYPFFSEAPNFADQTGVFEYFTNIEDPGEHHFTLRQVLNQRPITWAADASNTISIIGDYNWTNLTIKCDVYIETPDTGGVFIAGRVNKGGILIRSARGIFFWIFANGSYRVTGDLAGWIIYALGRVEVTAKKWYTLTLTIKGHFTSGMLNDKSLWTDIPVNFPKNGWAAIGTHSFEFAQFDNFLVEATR
Take `O=C(Cn1c(=O)oc2ccccc21)NCc1ccc(Cl)cc1`: the “activation” value was inactive: -10.2%. On to `CCOC(=O)c1c(Nc2ccccc2)nnc(-c2ccccc2)c1-c1ccccc1`, for which the “activation” value was inactive: -7.56%. `CCN(c1ccccc1)S(=O)(=O)c1cc(C(=O)Nc2ccc(Br)cc2)ccc1F`: the “activation” value is inactive: -10%. Under `CC(C)(C)OC(=O)N1CCC(c2c(C(=O)NCCN3CCOCC3)cnn2-c2ccccc2)CC1` stands inactive: -8.96%; under `COc1ccc2oc(-c3ccc(C)c(NC(=O)c4ccc(N5CCCCC5)c([N+](=O)[O-])c4)c3)nc2c1`, inactive: -11.1%; under `Cc1ccccc1C(=O)Nc1ccccc1C(=O)OCc1cc(=O)n2nc(C3CC3)sc2n1`, inactive: -14.1%.

With `COc1cccc(C(=O)Nc2ccc3c(c2)CCCN3C(=O)c2cccs2)c1OC`, the “activation” value was inactive: -18.6%. Consider `CCc1ccc(-n2c(=O)c3cccnc3n2CC(=O)N(CC)c2cccc(C)c2)cc1`, for which the “activation” value was inactive: -19.2%. To `Cc1ccc(NC(=O)CN2C(=O)C(c3ccccc3)=NC2(C)C)cc1C` belongs inactive: -5.7%; to `CCOc1ccc(S(=O)(=O)n2nc(C)c(S(=O)(=O)N3CCCCCC3)c2C)cc1`, inactive: -8.1%; to `Cc1cc2oc(C(=O)N(Cc3ccccc3)C3CCS(=O)(=O)C3)cc(=O)c2cc1C` (stereo not given), inactive: -7.38%. Under `Cc1ccc(-n2ncc3c(NCCc4ccccc4)ncnc32)cc1` stands inactive: -1.25%. To `CN1CCN(c2ncc3c(n2)CCN(Cc2ccccc2Cl)C3)CC1` belongs inactive: -8.78%. Consider `CCc1ccc(NC(=O)CSc2nnc(-c3nonc3NC(C)=O)n2-c2ccccc2)cc1`, for which the “activation” value is inactive: -11.1%.

As to `CCOc1ccc(Nc2c(S(=O)(=O)c3ccc(C)cc3)cnc3ccccc23)cc1`, the “activation” value is inactive: -21.4%. For `Cc1c2cnn(-c3ccccc3)c(=O)c2c(C)n1CC(=O)NCc1ccc(Cl)cc1`, the “activation” value is inactive: -9.62%. To `Cc1[nH]c(C)c(Cl)c(=O)c1Cl` belongs inactive: -16.9% [at 23.8 µM]; to `Cc1cc(-c2nc3ncccc3o2)ccc1NC(=O)COc1ccc(C(C)(C)C)cc1`, inactive: -10%; to `CCOc1ccc(NC(=O)Cn2cnc3nc4c(cc3c2=O)CCCC4)cc1`, inactive: -8.18%. Under `COc1ccc(CCNC(=O)Cn2c(C)c3cnn(-c4ccccc4)c(=O)c3c2C)cc1OC` stands inactive: -11%; under `COc1ccc(-c2cc(C)no2)cc1S(=O)(=O)Nc1cccc(C(F)(F)F)c1`, inactive: -19.2%; under `Cc1c(CCNC(=O)c2ccc(C(F)(F)F)cc2)sc2nc(-c3ccc(F)cc3)nn12`, inactive: -7.87%. Under `CC1=C(C(N)=O)C(c2ccc(C(C)C)cc2)n2nc(SCc3ccccc3F)nc2N1` (stereo not given) stands inactive: -11.3%. For `CCn1cc2nc(SCc3cccc(C(F)(F)F)c3)n(CCc3ccccc3)c(=O)c2n1`, the “activation” value was inactive: -14.5%. To `Cc1cc(O)c(C)c(C)c1O` belongs inactive: -5.5%; to `Fc1ccc(-n2ncc3c(Nc4ccc(Oc5ccc(Cl)cc5)cc4)ncnc32)cc1`, inactive: -10.5%; to `COc1ccc(-c2[nH]c(-c3ccc(F)cc3)nc2SCC(=O)Nc2ccc(OC)c(OC)c2)cc1`, inactive: -10.5%. Under `CCOC(=O)c1ccc(NC(=O)Cn2nnc(-c3ccc(C(F)(F)F)cc3)n2)cc1` stands inactive: -21.7%. Regarding `Cc1ccc(-c2csc(=Nc3ccccc3)n2CCCO)cc1`, the “activation” value was inactive: -21.9%. In the case of `CNC(=O)c1ccc(NC(=O)c2nsc3ccccc23)cc1`, the “activation” value was inactive: -3.68%.

In the case of `CCOC(=O)c1ccc(OCC2c3cc(OC)c(OC)cc3CCN2C(=O)Cc2ccc(OC)c(OC)c2)cc1` (stereo not given), the “activation” value is inactive: -13.1%.

`CCN1Cc2cccc(C(=O)Nc3ccc(F)cc3)c2C1=O`: the “activation” value was inactive: -0.169%. To `COc1ccc2c(c1)c(N1CCCC1=O)c(C(=O)Nc1ccc(Cl)cc1C)n2C` belongs inactive: -21.1%; to `Cc1ccc(N2CC(c3nnc(Cc4ccc(F)cc4Cl)o3)CC2=O)cc1` (stereo not given), inactive: -18.1%; to `CCCCNC(=O)c1ccc(-c2nc(CS(=O)(=O)c3ccc(C)cc3)c(C)o2)cc1`, inactive: -17.7%.

As to `CC1=C(c2ccc(Cl)cc2)S(=O)(=O)N=C1N1CCN(c2cccc(C)c2)C(C)C1` (stereo not given), the “activation” value is inactive: -2.48%. Under `COC(=O)CNC(c1ccccc1)c1cc(Br)ccc1NC(=O)c1cc(OC)c(OC)c(OC)c1` (stereo not given) stands inactive: -15%. To `COC(=O)c1ccc(OC)c(Cn2c(=O)n(-c3cccc(Cl)c3)c(=O)c3c2c2cc(C)ccc2n3C)c1` belongs inactive: 6.94%; to `CCc1ccc(NC(=O)CCS(=O)(=O)c2ccc3c(c2)oc(=O)n3C)cc1`, inactive: -13.5%. To `CCOC(=O)c1c(-c2ccc(C)cc2)csc1NC(=O)c1ccc(C(C)(C)C)cc1` belongs inactive: 1.85%.

Regarding `Cc1ccc(-n2c(SCc3nc(-c4ccccc4C)no3)nnc2-c2ccncc2)cc1C`, the “activation” value is inactive: -20.8%. To `COC(=O)c1c(NC(=O)c2ccc(S(=O)(=O)N3CCCCC3)cc2)sc2c1CCN(C)C2` belongs inactive: 4.49%; to `COc1ccc(CCNC(=O)CCCn2c(=O)c3ccccc3n(CC(=O)Nc3c(C)cc(C)cc3C)c2=O)cc1OC`, inactive: -4.1%. Under `C[C@@H]1C[C@H]2[C@@H]3CCC4=CC(=O)C=C[C@]4(C)[C@@]3(F)[C@@H](O)C[C@]2(C)[C@@]1(O)C(=O)COC(=O)c1ccncc1` stands inactive: -5.48%; under `Cc1ccc(O)c(NC(=O)CCS(=O)(=O)c2nc(-c3ccc4c(c3)OCO4)cc(C(F)(F)F)n2)c1`, inactive: -22.9%. To `COc1ccc(S(=O)(=O)N(CC(=O)Nc2cccnc2)c2ccc(C)cc2)cc1OC` belongs inactive: -8.59%.

With `COc1cc2c(=O)n(CCC(=O)NCC3CCCO3)c(=O)n(CC(=O)Nc3ccc(F)cc3)c2cc1OC` (stereo not given), the “activation” value is inactive: 1.9%.

Turning to `CCOc1ccccc1CNC(=O)c1cc(-c2ccc(C)c(C)c2)nc2ccccc12`, the “activation” value is inactive: 6.53%. To `CCn1c(CN2CCCCC2)nc2cc(NC(=O)c3ccc([N+](=O)[O-])cc3)ccc21` belongs inactive: -9.88%; to `CCOc1ccccc1NC(=O)COc1ccc(S(=O)(=O)NC2CCCCC2)cc1`, inactive: -11%. Under `Cc1ccc(-n2nnc(-c3nsc(NC(=O)c4ccc(C)c(C)c4)n3)c2C)cc1` stands inactive: 13.9%; under `O=c1[nH]c(=O)n([C@H]2C[C@H](O)[C@@H](CO)O2)cc1I`, inactive: -8.47%; under `CCc1ccc(CNC(=O)CCn2c(=O)c3cccn3c3ccc(F)cc32)cc1`, inactive: -9.91%. To `Cc1ccc(C(=O)Nc2nc(-c3ccccc3)ns2)cc1` belongs inactive: -24.6%; to `CCn1c(=O)c2sccc2n2c(CCC(=O)Nc3ccc(OC)c(Cl)c3)nnc12`, inactive: -8.26%; to `Cc1ccc(NC(=O)Cn2nnc(C(=O)NCCc3ccccc3)c2N)cc1C`, inactive: -15%.

With `Cc1oc2ncn(C)c(=O)c2c1C(=O)NCCCN(Cc1ccccc1)C(C)C`, the “activation” value was inactive: -6.5%. For the molecule `CC(C)Oc1ccc(CNC(=O)C2CCN(c3nc4ccccc4n(C)c3=O)CC2)cc1`, the “activation” value is inactive: -8.12%.

`CCc1ccc(C2NC(=O)c3[nH]nc(-c4cccc(OC)c4)c32)cc1` (stereo not given): the “activation” value was inactive: -8.94%. Consider `COc1cccc2sc(N3CCN(C(=O)CCS(=O)(=O)c4ccc(F)cc4)CC3)nc12`, for which the “activation” value was inactive: -55.1%.
